# Experimental data as given in the supplement of paper PMC8728848.
# This is one part of the list.
# Legend:
# Assay in all cases: glycan array binding signal (z-score within array); higher = stronger binding
# Conditions in all cases: glycan notation: IUPAC condensed, linker removed
# [1] = biological target: GlcNAc(b1-3)Gal(b1-4)GlcNAc(b1-3)Gal(b1-4)GlcNAc(b1-2)[GlcNAc(b1-3)Gal(b1-4)GlcNAc(b1-3)Gal(b1-4)GlcNAc(b1-6)]Man(a1-6)[GlcNAc(b1-3)Gal(b1-4)GlcNAc(b1-3)Gal(b1-4)GlcNAc(b1-2)Man(a1-3)]Man(b1-4)GlcNAc(b1-4)[Fuc(a1-6)]GlcNAc
# Procedure, shortened: (§1)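 Arrays were curated from the Consortium for Functional Glycomics database, 3228 in total, and kept only where the protein sequence was available. Binding is expressed as a within-array Z-score. This score was averaged across arrays of the same protein sequence at different concentrations or buffers and across linkers, and negative values can be read as non-binding.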
# [2] = biological target: GlcNAc(b1-3)Gal(b1-4)GlcNAc(b1-3)Gal(b1-4)GlcNAc(b1-3)Gal(b1-4)GlcNAc(b1-2)Man(a1-3)[GlcNAc(b1-3)Gal(b1-4)GlcNAc(b1-3)Gal(b1-4)GlcNAc(b1-3)Gal(b1-4)GlcNAc(b1-2)Man(a1-6)]Man(b1-4)GlcNAc(b1-4)GlcNAc
# Procedure, shortened: as §1
# [3] = biological target: GlcNAc(b1-3)Gal(b1-4)GlcNAc(b1-3)Gal(b1-4)GlcNAc(b1-3)Gal(b1-4)GlcNAc(b1-2)Man(a1-3)[GlcNAc(b1-3)Gal(b1-4)GlcNAc(b1-3)Gal(b1-4)GlcNAc(b1-3)Gal(b1-4)GlcNAc(b1-2)Man(a1-6)]Man(b1-4)GlcNAc(b1-4)[Fuc(a1-6)]GlcNAc
# Procedure, shortened: as §1
# [4] = biological target: GlcNAc(b1-3)Gal(b1-4)GlcNAc(b1-3)Gal(b1-4)GlcNAc(b1-3)Gal(b1-4)GlcNAc(b1-2)[GlcNAc(b1-3)Gal(b1-4)GlcNAc(b1-3)Gal(b1-4)GlcNAc(b1-3)Gal(b1-4)GlcNAc(b1-6)]Man(a1-6)[GlcNAc(b1-3)Gal(b1-4)GlcNAc(b1-3)Gal(b1-4)GlcNAc(b1-3)Gal(b1-4)GlcNAc(b1-2)Man(a1-3)]Man(b1-4)GlcNAc(b1-4)[Fuc(a1-6)]GlcNAc
# Procedure, shortened: as §1
# [5] = biological target: GlcNAc(b1-3)Gal(b1-4)GlcNAc(b1-3)Gal(b1-4)GlcNAc(b1-3)Gal(b1-4)GlcNAc(b1-3)Gal(b1-4)GlcNAc(b1-2)Man(a1-3)[GlcNAc(b1-3)Gal(b1-4)GlcNAc(b1-3)Gal(b1-4)GlcNAc(b1-3)Gal(b1-4)GlcNAc(b1-3)Gal(b1-4)GlcNAc(b1-2)Man(a1-6)]Man(b1-4)GlcNAc(b1-4)GlcNAc
# Procedure, shortened: as §1
# [6] = biological target: GlcNAc(b1-3)Gal(b1-4)GlcNAc(b1-3)Gal(b1-4)GlcNAc(b1-3)Gal(b1-4)GlcNAc(b1-3)Gal(b1-4)GlcNAc(b1-2)Man(a1-3)[GlcNAc(b1-3)Gal(b1-4)GlcNAc(b1-3)Gal(b1-4)GlcNAc(b1-3)Gal(b1-4)GlcNAc(b1-3)Gal(b1-4)GlcNAc(b1-2)Man(a1-6)]Man(b1-4)GlcNAc(b1-4)[Fuc(a1-6)]GlcNAc
# Procedure, shortened: as §1
# [7] = biological target: GlcNAc(b1-3)Gal(b1-4)GlcNAc(b1-3)Gal(b1-4)GlcNAc(b1-3)Gal(b1-4)GlcNAc(b1-3)Gal(b1-4)GlcNAc(b1-2)[GlcNAc(b1-3)Gal(b1-4)GlcNAc(b1-3)Gal(b1-4)GlcNAc(b1-3)Gal(b1-4)GlcNAc(b1-3)Gal(b1-4)GlcNAc(b1-6)]Man(a1-6)[GlcNAc(b1-3)Gal(b1-4)GlcNAc(b1-3)Gal(b1-4)GlcNAc(b1-3)Gal(b1-4)GlcNAc(b1-3)Gal(b1-4)GlcNAc(b1-2)Man(a1-3)]Man(b1-4)GlcNAc(b1-4)[Fuc(a1-6)]GlcNAc
# Procedure, shortened: as §1
# [8] = biological target: GlcNAc(b1-3)Gal(b1-4)GlcNAc(b1-3)Gal(b1-4)GlcNAc(b1-3)GalNAc
# Procedure, shortened: as §1
# [9] = biological target: GlcNAc(b1-3)Gal(b1-4)GlcNAc(b1-3)GalNAc
# Procedure, shortened: as §1
# [10] = biological target: GlcNAc(b1-3)Gal(b1-4)GlcNAc(b1-3)[GlcNAc(b1-3)Gal(b1-4)GlcNAc(b1-3)]GalNAc
# Procedure, shortened: as §1
# [11] = biological target: GlcNAc(b1-3)Gal(b1-4)GlcNAc(b1-6)[Gal(b1-3)]GalNAc
# Procedure, shortened: as §1
# [12] = biological target: GlcNAc(b1-3)Gal(b1-4)GlcNAc(b1-6)[GlcNAc(b1-3)Gal(b1-3)]GalNAc
# Procedure, shortened: as §1
# [13] = biological target: GlcNAc(b1-3)Gal(b1-4)GlcNAc(b1-6)[GlcNAc(b1-3)]Gal(b1-4)GlcNAc
# Procedure, shortened: as §1
# GlcNAc(b1-3)GalNAc = biological target: GlcNAc(b1-3)GalNAc
# Procedure, shortened: as §1
# GlcNAc(b1-3)Man = biological target: GlcNAc(b1-3)Man
# Procedure, shortened: as §1
# [14] = biological target: GlcNAc(b1-3)[GlcNAc(b1-4)][GlcNAc(b1-6)]GlcNAc
# Procedure, shortened: as §1
# [15] = biological target: GlcNAc(b1-3)[GlcNAc(b1-6)]Gal(b1-4)GlcNAc
# Procedure, shortened: as §1
# [16] = biological target: GlcNAc(b1-3)[GlcNAc(b1-6)]GalNAc
# Procedure, shortened: as §1
# [17] = biological target: GlcNAc(b1-4)Gal(b1-4)GlcNAc
# Procedure, shortened: as §1
# GlcNAc(b1-4)GlcNAc = biological target: GlcNAc(b1-4)GlcNAc
# Procedure, shortened: as §1
# [18] = biological target: GlcNAc(b1-4)GlcNAc(b1-4)GlcNAc
# Procedure, shortened: as §1
# [19] = biological target: GlcNAc(b1-4)GlcNAc(b1-4)GlcNAc(b1-4)GlcNAc(b1-4)GlcNAc
# Procedure, shortened: as §1
# [20] = biological target: GlcNAc(b1-4)GlcNAc(b1-4)GlcNAc(b1-4)GlcNAc(b1-4)GlcNAc(b1-4)GlcNAc
# Procedure, shortened: as §1
binder,measurement,setting,value
F17-L (Escherichia coli) (protein) GPDDYVPSQIAVNTSTLPGVVIGPADAHTYPRVIGELAGTSNQYVFNGGAIALMRGKFTPALPKIGSITYTFHQGNSRDSSDFDIYDIGVSGLGIIIGMAGYWPATPLVPINSSGIYIDPVGANTNPNTYNGATASFGARLFVAFVATGRLPNGYITIPTRQLGTILLEAKRTSLNNKGLTAPVMLNGGRIQVQSQTHHHHHH,glycan array binding signal (z-score),[1],0.025
same,glycan array binding signal (z-score),[2],-0.155
same,glycan array binding signal (z-score),[3],-0.016
same,glycan array binding signal (z-score),[4],-0.099
same,glycan array binding signal (z-score),[5],-0.107
same,glycan array binding signal (z-score),[6],-0.09
same,glycan array binding signal (z-score),[7],0.006
same,glycan array binding signal (z-score),[8],-0.232
same,glycan array binding signal (z-score),[9],-0.006
same,glycan array binding signal (z-score),[10],-0.18
same,glycan array binding signal (z-score),[11],-0.163
same,glycan array binding signal (z-score),[12],-0.151
same,glycan array binding signal (z-score),[13],-0.185
same,glycan array binding signal (z-score),GlcNAc(b1-3)GalNAc,-0.035
same,glycan array binding signal (z-score),GlcNAc(b1-3)Man,-0.163
same,glycan array binding signal (z-score),[14],-0.02
same,glycan array binding signal (z-score),[15],-0.228
same,glycan array binding signal (z-score),[16],-0.17
same,glycan array binding signal (z-score),[17],-0.095
same,glycan array binding signal (z-score),GlcNAc(b1-4)GlcNAc,-0.098
same,glycan array binding signal (z-score),[18],-0.131
same,glycan array binding signal (z-score),[19],-0.173
same,glycan array binding signal (z-score),[20],-0.065
